Results as given in the RNAGym collection of RNA variant scans (doi:10.1093/nar/gkz1192).
The source gives no read counts; variants with many changes may rest on few reads.

B1: CPEB3 Ribozyme (parent)
chain: UAACAGGGGGCCACAGCAGAAGCGUUCACGUCGCAGCCCCUGUCAGAUUCUGGUGAAUCUGCGAAUUCUGCUGUAUAUCUC

Variants of: B1
Test: self-cleavage, relative activity (ratio to wild type); higher = more cleavage; in vitro, sequencing
Procedure, shortened: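 For each CPEB3 ribozyme variant, relative activity is its cleaved/total read fraction divided by the unmutated ribozyme's. Barcoded error-prone PCR libraries were transcribed by T7 RNA polymerase (5 hours, 37°C) and held in DNase I for 15 min before an EDTA stop, with cleavage occurring throughout. Template-switching reverse transcription and Illumina sequencing were used to read the RNAs. A 5-read minimum applied, and results are the mean of three batches.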
A13C A18U C23G C32G U41C gave a self-cleavage of 0.06. With C12U A35G U51G U54C the self-cleavage was 1.26. A13C A18G U54G U67C U80G showed a self-cleavage of 0.15. For C12U U26C U54C U72A, the self-cleavage was 0.34. For C12U U41C U60C, the self-cleavage was 1.13. Variant C12U A28G U67A U76C has a self-cleavage of 0.63. Variant A13G A15G G30A U69C has a self-cleavage of 0.22. Variant C12U U31A U66C U67C G70U A75G has a self-cleavage of 0.21. A13G A15G U74C showed a self-cleavage of 0.34. Variant C12U C17U A20U U54C A56G has a self-cleavage of 0.16. Variant A13G A15U A28G A56U U74C has a self-cleavage of 0.05. Variant A13C A45G U48C A64C A65U A77G has a self-cleavage of 0.14. In the case of A13C C17U U54A, the self-cleavage is reported as 0.44. Work on C12U A35G U43C A57G U69C yielded a self-cleavage of 0.27. For A13C C40A A56G, the self-cleavage was 0.34. With A13G A15G U31A the self-cleavage was 0.33. C12U U43C A45G A57G G70U gave a self-cleavage of 0.18. With C12U A47G G63U U78C the self-cleavage was 1.14. Work on C12U U31C U43C U72C yielded a self-cleavage of 0.53. For C12U C14U G16U A56G U60A, the self-cleavage was 0.19. In the case of A13G A15G U67C C68G, the self-cleavage is reported as 0.09. A13G A15G A28G U69A U72C gave a self-cleavage of 0.42. With A13G A15U U54C the self-cleavage was 0.49. For C12U G63A U80C, the self-cleavage was 1.05. In the case of A13C A20G C23G U67A, the self-cleavage is reported as 0.05. For A13C U25C U31A U78C, the self-cleavage was 0.09. Variant C12U U66A U74A has a self-cleavage of 1.24. Work on A13C U54G A64U yielded a self-cleavage of 0.21. For A13C C27A A35G A45G U60C, the self-cleavage was 0.22. A13C C32U U58C showed a self-cleavage of 0.23. A13G A15G A64G gave a self-cleavage of 0.26. A13G A15G C32U U41C A45U A75U gave a self-cleavage of 0.05. With A13C U31C U43C the self-cleavage was 0.46. For A13C A20G U43C A65G, the self-cleavage was 0.18. Work on A13G A15G U49C A64U yielded a self-cleavage of 0.12. In the case of A13C A57G C62G U69C U78C U80C, the self-cleavage is reported as 0.23. With C12U U31C A45G A56C A64U the self-cleavage was 0.13. Variant C12U C44A U72A has a self-cleavage of 0.56. C12U C40A U54C U58C U80C showed a self-cleavage of 0.05. C12U G24A A35G U51C gave a self-cleavage of 0.09. A13C A15G U25C U54C showed a self-cleavage of 0.2. Variant C12U U49C A64C has a self-cleavage of 0.1. For A13G A15G A35G U41C, the self-cleavage was 0.48. A13G A15C U43A U51C A65G U80C showed a self-cleavage of 0.28. For A13C C34U U43C A64U, the self-cleavage was 0.08. With A13C A56G U74A the self-cleavage was 1.07. For A13G A15U C39U A45C U66G U67C, the self-cleavage was 0.23. C12U C38G A45G G70A A77G showed a self-cleavage of 0.04. A13G A15G A20U U54A gave a self-cleavage of 0.35. A13G A15G U43G A77G showed a self-cleavage of 0.28. C12U U48A U49A U74C gave a self-cleavage of 1.21. A13C U41G U51C U54C U72C A75G showed a self-cleavage of 0.15. A13C G19C U41A G63A A64G U72A U78A showed a self-cleavage of 0.11. Work on A13C U41C U69A G73A yielded a self-cleavage of 1.02. A13G A15G U41C A45U showed a self-cleavage of 0.09. In the case of A13C U49C A65G, the self-cleavage is reported as 0.22. Variant C12U U60A A77U has a self-cleavage of 0.9. With C12U U31C A56G U78C the self-cleavage was 0.9. With A13C C14A U25C A28G A35U U67C the self-cleavage was 0.04. Variant A13C C17U U60A C62U has a self-cleavage of 0.08. With A13C A20U U69A A75G the self-cleavage was 0.11. In the case of C12U U41C U60A G70A, the self-cleavage is reported as 0.52. In the case of A13C A28U G52U, the self-cleavage is reported as 0.87. For A13G A15G A20U U26C C50A C79U, the self-cleavage was 0.4. Work on A13C U25C U48C G52C yielded a self-cleavage of 0.12. For A13C U26C A45G U78C, the self-cleavage was 0.22. For A13C A20G U60A G70C U76A, the self-cleavage was 0.15. Variant C12U A45G U51A U69A has a self-cleavage of 0.7. For C12U U69A U76C, the self-cleavage was 1.2. In the case of A13C U43C G63A A75U, the self-cleavage is reported as 0.54. In the case of C12U A28U A35C, the self-cleavage is reported as 0.52. With A13C G53A U58C A65U the self-cleavage was 0.15. For C12U A35C A45G U67C, the self-cleavage was 0.15. A13C A35G U80C showed a self-cleavage of 1.16. Work on A13C U31C A35C yielded a self-cleavage of 0.52. A13C C44U U80C showed a self-cleavage of 0.47. With C12U U41C U74A the self-cleavage was 1.37. For C12U U41A U66C A77U, the self-cleavage was 0.05. A13C A35C U67G U78C showed a self-cleavage of 0.13. Work on A13G A15U U25C C39U C50A yielded a self-cleavage of 0.29. A13G A15U A18G C34U A47U A56U showed a self-cleavage of 0.22. Variant A13C U43C C50A U58C U78C has a self-cleavage of 0.21. For A13C A20U A28C A45G U67C U80C, the self-cleavage was 0.08. Variant A13C U43C U51C U54C has a self-cleavage of 0.45.
